# The other results are listed elsewhere or left out. Each Rep nickase domain was tested in vitro on the same pool of single strands (3 µM enzyme, 1 h, 37 °C); shown is the middle of each 90-letter strand. Uncut reads are compared with the no-enzyme pool on a log2 scale; the lower, the more was cut; hits are not called. Reads are scaled to the total; values above 0 arise when much of the pool is cut.
# Key:
# Assay in all cases: uncleaved DNA left, log2 of reads against the no-enzyme library (log2 ratio); higher = less cleavage (more negative = more Rep cleavage of the k-mer); sequences stand for … in CTCGTCCG…ACCGGAGA
# [1] = test system: T1, Rep nickase domain of Muscovy duck circovirus
# T1 sequence (Rep 1-111, printed without the tag): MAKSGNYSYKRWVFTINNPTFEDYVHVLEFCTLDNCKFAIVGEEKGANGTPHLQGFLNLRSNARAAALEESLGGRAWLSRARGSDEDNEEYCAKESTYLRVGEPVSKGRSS
# Protocol: (§1)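 A pool of 90-nt single-stranded DNAs with seven random bases just before the constant AC of the nick site (name = the seven bases) was cut by 3 µM recombinant His6-SUMO-tagged Rep nickase domain (300 nM DNA, 50 mM HEPES pH 8.0, 50 mM NaCl, 1 mM MnCl2, 1 h, 37 °C, three replicates). Uncut DNA was amplified and sequenced.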
# [2] = test system: T2, Rep nickase domain of banana bunchy top virus
# T2 sequence (Rep 1-94, printed without the tag): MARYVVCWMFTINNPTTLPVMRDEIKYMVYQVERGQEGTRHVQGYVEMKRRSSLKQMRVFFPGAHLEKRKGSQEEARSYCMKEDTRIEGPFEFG
# Protocol: as §1
# [3] = test system: T3, Rep nickase domain of cabbage leaf curl virus
# T3 sequence (Rep 1-116, printed without the tag): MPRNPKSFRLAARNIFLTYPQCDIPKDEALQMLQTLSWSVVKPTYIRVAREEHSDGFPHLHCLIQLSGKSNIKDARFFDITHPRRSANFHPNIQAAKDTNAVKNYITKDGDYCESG
# Protocol: as §1
# [4] = test system: T4, Rep nickase domain of chickpea chlorotic dwarf virus
# T4 sequence (Rep 1-124, printed without the tag): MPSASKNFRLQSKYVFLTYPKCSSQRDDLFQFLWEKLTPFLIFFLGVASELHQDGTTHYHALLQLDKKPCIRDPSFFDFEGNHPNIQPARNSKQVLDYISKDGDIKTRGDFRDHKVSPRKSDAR
# Protocol: as §1
# [5] = test system: T5, Rep nickase domain of faba bean necrotic yellows virus
# T5 sequence (Rep 1-98, printed without the tag): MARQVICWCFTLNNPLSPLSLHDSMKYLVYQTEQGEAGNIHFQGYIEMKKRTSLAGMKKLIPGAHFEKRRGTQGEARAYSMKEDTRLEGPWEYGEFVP
# Protocol: as §1
# [6] = test system: T6, Rep nickase domain of maize striate mosaic virus
# T6 sequence (Rep 1-117, printed without the tag): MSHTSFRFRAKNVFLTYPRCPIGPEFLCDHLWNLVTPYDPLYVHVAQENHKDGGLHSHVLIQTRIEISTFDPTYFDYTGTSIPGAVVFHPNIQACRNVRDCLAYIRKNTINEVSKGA
# Protocol: as §1
# [7] = test system: T7, Rep nickase domain of porcine circovirus 2
# T7 sequence (Rep 2-116, printed without the tag): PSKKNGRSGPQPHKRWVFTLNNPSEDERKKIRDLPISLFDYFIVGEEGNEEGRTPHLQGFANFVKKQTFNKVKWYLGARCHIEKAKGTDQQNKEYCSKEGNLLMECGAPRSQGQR
# Protocol: as §1
# [8] = test system: T8, Rep nickase domain of tomato yellow leaf curl virus
# T8 sequence (Rep 1-136, printed without the tag): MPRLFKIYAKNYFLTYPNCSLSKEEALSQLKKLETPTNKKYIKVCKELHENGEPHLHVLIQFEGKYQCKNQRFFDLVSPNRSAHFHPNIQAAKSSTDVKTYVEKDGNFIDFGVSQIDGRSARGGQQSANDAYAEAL
# Protocol: as §1
# [9] = test system: T9, Rep nickase domain of wheat dwarf virus
# T9 sequence (Rep 1-137, printed without the tag): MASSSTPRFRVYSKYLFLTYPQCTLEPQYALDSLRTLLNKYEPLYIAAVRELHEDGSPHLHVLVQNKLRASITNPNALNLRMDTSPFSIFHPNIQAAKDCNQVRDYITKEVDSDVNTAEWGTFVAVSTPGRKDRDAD
# Protocol: as §1
Sequence,uncleaved DNA left (log2) [1],uncleaved DNA left (log2) [2],uncleaved DNA left (log2) [3],uncleaved DNA left (log2) [4],uncleaved DNA left (log2) [5],uncleaved DNA left (log2) [6],uncleaved DNA left (log2) [7],uncleaved DNA left (log2) [8],uncleaved DNA left (log2) [9]
AATATAT,0.0182,-0.169,-0.839,-1.95,0.074,-0.312,-3.23,0.0939,0.105
GAAACCC,-0.0807,0.0573,0.179,0.0638,-0.0251,0.6,-0.447,-0.00742,0.167
TGTCCAG,-0.115,-0.0523,-0.573,-0.656,-0.182,-1.17,-0.0322,-0.0723,-0.186
TAATCAT,-2.65,-0.0516,-4.25,-3.16,-0.0286,-2.92,-3.54,-0.118,-3.9
CTCGACG,0.0637,0.0513,-0.524,-0.555,0.136,-0.922,0.154,0.0748,-0.0417
CCGCCTC,-0.187,-0.182,0.0585,-0.0989,-0.307,0.0401,-0.0244,-0.243,-0.153
GTAGCGT,0.13,0.0433,-0.544,-0.702,-0.0475,-0.65,0.139,-0.00684,-0.011
CGCCCAT,0.344,0.248,0.283,0.061,0.164,0.263,0.079,0.291,0.186
ATGTCTT,-2.31,-1.41,-0.153,-2.35,-0.934,-0.388,-3.26,-0.0228,-0.0764
GCTCGGT,0.00115,0.0267,0.244,0.577,-0.0828,0.585,0.0489,0.00363,0.0608
AGGTTGA,-0.00348,-0.0166,-0.0278,0.228,0.0631,0.00712,0.103,-0.0367,-0.0637
ATATTGG,0.11,0.0486,-0.602,-0.532,0.159,-1.05,0.243,0.105,0.0779
TCTGTAT,-0.0211,-0.0264,0.172,-0.354,0.000965,0.0688,-0.0117,-0.0103,-0.139
TTTCACA,0.0469,-0.0191,0.27,-1.04,0.065,0.412,-0.124,0.123,-0.00992
GTTTTTA,0.00122,0.137,0.434,0.897,0.0828,1.85,0.111,0.125,0.128
CTGCCCA,-0.0264,-0.000205,-0.16,-0.761,0.0852,-0.557,-0.393,0.0372,-0.0749
ATCCGGG,0.0897,0.0726,0.437,0.709,-0.0669,0.407,0.243,0.0632,0.0542
GTCTCCC,-0.0714,-0.143,0.245,0.546,-0.0433,1.54,-0.506,-0.156,0.0327
GACAGCG,0.156,0.0933,-0.554,0.708,0.0577,-0.249,0.101,0.0136,-0.0291
CCTTTCG,0.0508,0.0877,-0.715,0.539,0.0533,-0.573,0.18,0.0919,0.106

Sequence,uncleaved DNA left (log2) [1],uncleaved DNA left (log2) [2],uncleaved DNA left (log2) [3],uncleaved DNA left (log2) [4],uncleaved DNA left (log2) [5],uncleaved DNA left (log2) [6],uncleaved DNA left (log2) [7],uncleaved DNA left (log2) [8],uncleaved DNA left (log2) [9]
CAACCCG,-0.11,0.0391,-0.9,-0.983,-0.0546,-0.951,-1.46,0.0217,-0.0816
GCTCTTT,-0.00373,-0.186,0.0566,-0.961,-0.0836,0.0917,-0.122,0.00335,-0.191
GAGAATT,0.0243,-1.26,0.413,0.052,-0.449,1.73,-2.74,0.021,0.21
AGACACG,0.0321,0.0507,-0.0226,0.373,-0.0586,-0.513,0.198,-0.0685,0.0866
CAGTATC,-0.123,-0.151,-0.0696,-0.514,-2.01,-0.653,-3.14,-0.212,-0.0663
GGGGATT,0.087,0.168,0.815,1.95,0.0615,2.32,0.15,0.0424,0.267
CTGGCCT,-0.282,-0.229,-0.247,-0.167,-0.24,0.528,-0.16,-0.201,-0.339
CCTGGCG,-0.124,-0.0904,-0.791,0.48,-0.039,-0.476,0.1,-0.0491,-0.113
CGTTCGT,-0.0814,-0.0648,-0.435,-0.695,0.0464,-0.926,-0.033,0.0344,-0.0505
CCTAGTG,0.0624,-0.0176,-0.635,-0.632,0.0901,-0.95,0.144,0.0338,-0.123
CAGCAAA,0.0377,0.0797,0.0515,-0.312,0.161,-0.494,-0.0603,0.127,0.0922
TAGGCTG,0.00367,0.126,0.241,1.13,-0.017,1.73,0.0645,-0.118,-0.0152
GGGGATA,-0.0103,0.104,0.828,1.97,0.0317,2.32,0.22,-0.051,0.0615
AGGGCTT,0.0553,0.0751,0.421,1.18,0.0152,1.86,0.0625,-0.231,-0.00784
CTTTTAT,-0.662,-0.0827,0.137,-1,0.00773,-0.52,-1.17,0.0437,-0.0023
GATAAAG,0.0176,0.072,-0.578,-0.468,-0.0027,-0.826,0.206,0.0899,-0.00814
CTGTAGC,0.0767,-0.0489,-0.396,-0.568,-0.116,-0.871,0.148,-0.0237,0.0659
TATGCGG,0.0945,0.0539,0.369,0.707,-0.106,0.551,0.114,0.0195,0.0503
CCCGCGA,-0.0634,-0.222,-0.855,-0.4,-0.00513,-0.76,-0.0755,-0.157,-0.419
AAGTTAT,-0.269,-0.462,0.112,0.486,-0.264,1.31,-3.53,-0.19,-0.00829

Sequence,uncleaved DNA left (log2) [1],uncleaved DNA left (log2) [2],uncleaved DNA left (log2) [3],uncleaved DNA left (log2) [4],uncleaved DNA left (log2) [5],uncleaved DNA left (log2) [6],uncleaved DNA left (log2) [7],uncleaved DNA left (log2) [8],uncleaved DNA left (log2) [9]
GTTGGGA,0.0551,0.176,0.331,0.882,0.0178,0.925,0.321,0.0945,0.171
TGCATTG,-0.00689,0.021,-0.376,-0.313,-0.0302,-0.58,0.0669,0.064,0.00619
TATTCTT,-3.99,-3.95,-2.78,-3.04,-1.01,-0.447,-4.08,0.0087,-1.99
CTGGTCT,0.0226,-0.0652,0.0304,-1.11,0.0377,-0.286,-0.18,0.0504,0.0445
GAGACAC,0.08,0.13,0.873,2.04,-0.0583,2.14,0.286,0.0677,0.239
GGGATCC,0.112,0.0667,0.826,1.93,0.0757,2.14,0.351,0.134,0.221
TGGCACA,0.0909,0.0671,0.57,0.877,-0.168,1.4,0.0674,-0.0357,0.0945
ACTCTCG,0.0406,-0.101,-0.623,0.159,-0.00446,-0.569,0.115,-0.035,-0.0644
AAAGAAT,0.118,0.0267,0.21,1.25,0.0303,1.64,0.207,-0.0502,0.13
GTGGCAT,0.0293,0.0823,0.841,1.96,-0.0904,2.26,0.22,-0.0504,0.116
CATTGTG,-0.0386,-0.178,0.215,1.38,-0.117,1.42,0.0841,0.0922,-0.127
TCACAAA,0.167,0.0853,0.205,-0.084,0.0845,-0.418,0.197,0.114,0.103
ATCGTGT,-0.034,-0.0631,-0.273,-0.64,-0.0345,-0.968,-0.0944,-0.0951,-0.129
TGGAGCG,0.11,0.0176,-0.788,-0.154,0.123,-1.1,0.129,0.103,-0.0558
CCACTAT,0.103,0.0203,-0.017,-1.68,0.103,-0.62,-0.0918,-0.0709,0.0278
GGAATCC,0.0828,0.117,0.483,1.31,0.0627,1.78,0.181,0.14,0.131
GCTATGG,0.0302,-0.0696,-0.0468,0.355,-0.0451,-0.319,0.175,-0.118,-0.0387
TATTGGT,-3.27,-3.23,-0.886,-1.71,-0.107,-0.89,-3.68,-0.0547,-0.196
ACCAAGG,0.134,0.0684,-0.362,0.0678,0.0779,-0.775,0.145,0.0377,0.0498
ACCGCAA,-0.0309,-0.118,-0.338,-0.337,0.0529,-0.844,0.0636,-0.0915,-0.191
